# Measurements: PubChem BioAssay AID686979 (National Center for Advancing Translational Sciences (NCATS), 2013)
# Where “and” joins values, the source holds several entries; their conditions need not be identical. Equal values may be shown once. The campaign covered roughly 420,000 compounds. About 50,000 (12%) were called active. The inconclusive results got no clear call from the source; some entries with a clear call stand among them for comparison. The call rests on the fitted dose curve; in most records, active means well fitted inhibition curve with a large enough effect; inconclusive means small, poorly fitted or top-dose-only effect; inactive means flat fitted curve, though single readings scatter. A potency beside an inconclusive call is a rough fit, not a confirmed value.
# Assay: qHTS for Inhibitors of human tyrosyl-DNA phosphodiesterase 1 (TDP1): qHTS in cells in presence of CPT; further: nearly all actives have a fitted effect of over 55% in size
# Conditions: chicken DT40 Tdp1-/-;hTDP1 cells + 20 nM CPT, ATP luminescence, 48 h; series mostly up to 46.2 µM
# In short: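 Chicken DT40 Tdp1-/- cells complemented with human TDP1, 400 cells/well, exposed to compounds plus 20 nM camptothecin for at least 48 h at 37 C; viability read as ATP content by CellTiter-Glo luminescence.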
# Potency means the concentration at half of the fitted maximal effect; tags describe the fitted curve by direction and shape.
row,SMILES,Potency
1,O=C(NCc1ccco1)c1cccc2c(-c3ccc(F)c(F)c3)coc12,"inconclusive: 16.4 µM [inhibitor, single point]"
2,N#CC1=C(N)Oc2n[nH]c(-c3cccnc3)c2C1c1ccc([N+](=O)[O-])o1 (configuration not stated),active: 3.66 µM
3,COc1ccc(S(=O)(=O)c2cnc3ccc(Cl)cc3c2N2CCCCC2C)cc1 (configuration not stated),active: 16.4 µM
4,Cc1ccc(-n2c(Cc3cccn3C)nnc2SCC(=O)NC2CCCCC2)cc1,"inconclusive: 15.8 µM [inhibitor, single point]"
5,FC(F)(F)c1cc(Cl)c2nc(-c3ccco3)c(Cc3ccccc3C(F)(F)F)n2c1,"inconclusive: 29.1 µM [inhibitor, single point]"
6,O=S(=O)(NCc1ccc(F)cc1)c1ccccc1Br,"inactive and inconclusive: 35.5 µM [inhibitor, single point]"
7,Cc1cc(C)cc(OCC(=O)Nc2c(C)ccc3nsnc23)c1,"inconclusive: 14.6 µM [inhibitor, single point]"
8,Cc1ccc(C(=O)NC(=S)NCc2ccccc2)cc1Br,"inconclusive: 29.1 µM [inhibitor, single point]"
9,COc1ccc(-c2cc(C(F)(F)F)nc(SCCC(=O)N3CCCC3)n2)cc1,"inconclusive: 20.6 µM [inhibitor, partial curve]"
10,CC1CCCc2sc3nc(SCC(=O)c4ccc(Br)cc4)nc(N)c3c21 (configuration not stated),"inconclusive: 29.1 µM [inhibitor, single point]"
11,O=c1c2ccccc2[nH]c(=S)n1CCCN1CCC(Cc2ccccc2)CC1,"inconclusive: 23.1 µM [inhibitor, single point]"
12,COc1ccccc1NC(=O)c1ccc(Cl)c(S(=O)(=O)NCc2ccco2)c1,"inconclusive: 18.4 µM [inhibitor, single point]"
13,CC(c1nc2ccccc2n1Cc1ccccc1)N1CCCCC1 (configuration not stated),active: 16.4 µM
14,CN(C)C(=O)c1ccc(-c2cc(N(C)Cc3ccco3)ncn2)cc1,inactive
15,O=C(CCNC(=O)N1CCn2c1nc1ccccc12)NCc1ccccc1Cl,inactive
16,O=C(NCc1ccco1)C(c1ccncc1)N(CCC1=CCCCC1)C(=O)Cn1nnc2ccccc21 (configuration not stated),"inconclusive: 29.1 µM [inhibitor, single point]"
17,COc1ccc(/C(N)=N/OC(=O)c2ccc3c(c2)OCO3)cc1OC,active: 20.6 µM
18,Cc1ccccc1NC(=O)CSc1nc2nccnc2c(=O)n1CCc1c[nH]c2ccccc12,active: 23.1 µM
19,Nc1ccccc1/C=C/c1ccnc2ccccc12,active: 5.01 µM
20,CC12CC3CC(C)(C1)CC(C(=O)NC(=S)N1CCCCC1)(C3)C2,"inconclusive: 29.1 µM [inhibitor, single point]"
21,COc1ccc(C(=O)N(Cc2ccco2)Cc2cccs2)c(OC)c1,"inconclusive: 35.5 µM [inhibitor, single point]"
22,Cc1cccc(N2CCN(C(=O)Cn3nc(C)n4cccc4c3=O)CC2C)c1 (configuration not stated),"inactive and inconclusive: 7.31 µM [inhibitor, partial curve]"
23,COc1cc(/C=C/C(=O)OCC(=O)N2CCc3ccccc3C2)ccc1O,"inconclusive: 20.6 µM [inhibitor, single point]"

row,SMILES,Potency
1,COc1ccc2c(C)c(CC(=O)N3CCN(C(=O)C4COc5ccccc5O4)CC3)c(=O)oc2c1C (configuration not stated),"inconclusive: 18.4 µM [inhibitor, single point]"
2,CC(C)Sc1nnc(SCC(=O)NCCCN2CCCC2=O)s1,inactive
3,CC(=O)c1ccc(NC(=O)c2ccc3c(=O)n4c(nc3c2)CCCCC4)cc1,"inconclusive: 29.1 µM [inhibitor, single point]"
4,CCOc1ccc(N(CC)S(=O)(=O)c2cc(Br)cc3c2N(C(C)=O)C(C)C3)cc1 (configuration not stated),active: 20.6 µM
5,Cc1nc(N2CCN(C(=O)c3ccco3)CC2)c2c3c(sc2n1)CC(C)CC3 (configuration not stated),active: 20.6 µM
6,CCOc1ccc(C(=O)Nc2ccc(NC(=O)c3cccs3)cc2)cc1[N+](=O)[O-],inactive
7,Cc1c(/C=N\NC(=O)C2COc3ccccc3O2)c2ccccc2n1C (configuration not stated),active: 0.731 µM
8,N#Cc1ccc(C(C(=O)NC2CCCCC2)n2c(=O)c(-c3ccco3)nc3ccccc32)cc1 (configuration not stated),active: 14.6 µM
9,COc1ccc(NC(=O)Nc2ccc3nc([C@@H]4O[C@H](CO)[C@@H](O)[C@H](O)[C@H]4O)[nH]c3c2)cc1OC1CCCC1,inactive
10,COc1ccc(N2CC(O)=C(c3nc4ccccc4s3)C2=N)c(OC)c1,"inconclusive: 20.6 µM [inhibitor, single point]"
11,CC(C)=CCc1cc(-c2oc3cc(O)cc(O)c3c(=O)c2O)ccc1O,"inconclusive: 18.4 µM [inhibitor, single point]"
12,Cc1ccc(C)c(N2CCN(C(C(=O)NC3CCCC3)c3ccco3)CC2)c1 (configuration not stated),"inconclusive: 23.1 µM [inhibitor, single point]"
13,CC(OC(=O)c1cc[n+]([O-])cc1)C(=O)NCc1ccccc1 (configuration not stated),inactive
14,CCCCN(C)CCCNC(=O)Cn1ncc2c3ccccc3n(Cc3ccccc3)c2c1=O,"inconclusive: 20.6 µM [inhibitor, partial curve]"
15,Cc1ccc(C2=NS(=O)(=O)N(C)C(C(=O)N(C)C3CCCCC3)=C2)cc1,"inconclusive: 29.1 µM [inhibitor, single point]"
16,COCc1nc2ccccc2n1CCOc1cccc(C)c1,"inconclusive: 29.1 µM [inhibitor, single point]"
17,O=C(CN1N=C(c2ccc(Cl)cc2)CCC1=O)NCCc1ccc(Cl)cc1,"inconclusive: 29.1 µM [inhibitor, single point]"
18,CC(=O)c1cccc(NC(=O)c2oc3c(c2C)-c2nn(Cc4ccc(Cl)cc4)cc2CC3)c1,"inconclusive: 25.9 µM [inhibitor, single point]"
19,CC(C)c1cc(C(=O)N2CCCC(N3CCN(c4ccc(F)cc4)CC3)C2)no1 (configuration not stated),"inconclusive: 23.1 µM [inhibitor, single point]"
20,C[C@H](O)[C@@H]1C(=O)N2CCc3ccc(-c4ccccc4)cc3[C@@H]2C[C@@H]1N(C)C(=O)c1ccc(C#N)cc1,"inconclusive: 16.4 µM [inhibitor, single point]"
21,Cc1ccccc1NC(=O)c1ccc2c(c1)c(C)c(C)n2Cc1ccccc1,active: 7.31 µM
22,CCOc1ccccc1CN1CCN(S(=O)(=O)c2ccccc2)CC1,"inconclusive: 25.9 µM [inhibitor, single point]"
23,CCOC(=O)c1c(-c2ccccc2)oc2ccc(NS(=O)(=O)c3cc(C)c(C)cc3C)cc12,active: 18.4 µM

row,SMILES,Potency
1,C#CCOCCOCCOCCNc1nc(N2CCN(C(=O)CCCCCCCCCCNC(=O)[C@H](CCCCN)n3cc(C)nn3)CC2)nc(N2CCN(C(=O)CCCCCCCCCCNC(=O)[C@H](CO)n3cc(CCCSC)nn3)CC2)n1,active: 14.6 µM
2,COc1ccc(Cl)cc1C(=O)CSc1nnnn1C,inactive
3,COc1cccc(C2(C)NC(=O)N(CC(=O)c3cc(C)n(C4CC4)c3C)C2=O)c1 (configuration not stated),"inconclusive: 14.6 µM [inhibitor, partial curve, poor fit]"
4,COc1ccc(C(NC(=O)C(C)C)c2c(O)ccc3ccccc23)cc1OC (configuration not stated),inactive
5,CC(C)(C)NC(=S)Nc1cccc(C(F)(F)F)c1,"inconclusive: 25.9 µM [inhibitor, single point]"
6,CCn1nc(C)c(Br)c1Nc1ccc(Br)cc1,inactive
7,CCc1ccccc1N1CC(C(=O)Nc2cc(S(=O)(=O)N3CCCC3)ccc2Cl)CC1=O (configuration not stated),"inconclusive: 29.1 µM [inhibitor, single point]"
8,O=C(CSc1n[nH]c(=O)n1C1CC1)N1N=C(c2ccc(Cl)cc2)CC1c1ccco1 (configuration not stated),"inconclusive: 23.1 µM [inhibitor, single point]"
9,COc1ccc(CNc2ncnc3cc(OC)c(OC)cc23)cc1OC,inactive
10,CCN(CC)S(=O)(=O)c1ccc(N2CCCC2)c(NS(=O)(=O)c2ccc(F)cc2)c1,"inconclusive: 20.6 µM [inhibitor, single point]"
11,COc1cc(C(=O)NCC2CCCCC2)ccc1OCc1c(C)noc1C,inactive
12,COc1cc(OC)cc(C2=Cc3ccccc3C(CC(C)=O)N2c2ccc(C#CC3(N)CCCCC3)cc2)c1 (configuration not stated),"inconclusive: 20.6 µM [inhibitor, single point]"
13,COc1ccccc1NC(=O)CSC1=Nc2ccccc2C2=NC(CC(=O)NCc3ccco3)C(=O)N12 (configuration not stated),"inconclusive: 14.6 µM [inhibitor, single point]"
14,Cc1cccc(CN2CCC(CNC(=O)Nc3ccc(F)c(Cl)c3)CC2)c1,"inconclusive: 23.1 µM [inhibitor, single point]"
15,CC(NC(=O)Cc1cccs1)C(c1cccs1)N1CCN(c2ccccc2F)CC1 (configuration not stated),active: 17.8 µM
16,CCN(CC(=O)Nc1ccccc1C(F)(F)F)C(=O)c1ccc2c(c1)NC(=O)C(C)S2 (configuration not stated),"inconclusive: 29.1 µM [inhibitor, single point]"
17,COCCNc1nc2nonc2nc1NC(C)c1ccccc1Cl (configuration not stated),"inconclusive: 29.1 µM [inhibitor, single point]"
18,CCN=C1SC(CC(=O)Nc2sc(C)c(C)c2C(=O)OC)C(=O)N1CC (configuration not stated),"inconclusive: 23.1 µM [inhibitor, single point]"
19,CCc1ccc(NC(=O)NCC2CCN(Cc3cccc(Cl)c3)CC2)cc1,"inconclusive: 23.1 µM [inhibitor, single point]"
20,CCN(C(=O)c1ccco1)c1nc(-c2ccc(OC)cc2)cs1,inactive
21,Clc1ccc(Nc2nnc(Cc3ccncc3)c3ccccc23)cc1,"inconclusive: 26.6 µM [inhibitor, single point]"
